# Source: PubChem BioAssay AID1671194 (National Center for Advancing Translational Sciences (NCATS), 2021)
# The campaign covered roughly 140,000 compounds. About 240 (0.17%) were called active. Inconclusive results, whose numbers are uncertain, are shown with a selection of clear calls. Calls come from the whole dose curve; as a rule, active = well fitted inhibition curve with a large enough effect; inconclusive = small, poorly fitted or top-dose-only effect; inactive = no such curve, though single readings can be large or run the other way. Potencies beside an inconclusive call are fits to weak or partial responses and may not hold up.
# Assay: Primary qHTS assay for inhibitors of alpha-synuclein gene (SNCA) expression; note: nearly all actives have a fitted effect of over 45% in size
# Details: HEK-293 SNCA-luciferase knock-in, luminescence, 24 h; series mostly up to 57.2 µM
# Potency is the fitted concentration of half-maximal effect; tags give direction and shape of the fitted curve.
row,Compound,Potency
1,O=C(COc1ccccc1)N[C@H]1[C@H](O)[C@H](O)C[C@@H]1c1ccc(C(F)(F)F)cc1,"inconclusive: 39.8 µM [inhibitor, partial curve, poor fit]"
2,CN(C)C(=O)C1CN(C(=O)Nc2cc(F)cc(F)c2)CC12CCOCC2 (stereo not given),inactive
3,CCC(C)NC(=O)C1COC2(CCC(C)CC2)N1C(=O)c1cccc(F)c1 (stereo not given),inactive
4,CC(=O)NCCCC(=O)N1CCC2(CC1)CC(NC(C)=O)c1ccccc1O2 (stereo not given),"inconclusive: 3.55 µM [inhibitor, partial curve, poor fit]"
5,O=C(Cc1ccsc1)N1CCC(Cc2nc(-c3ccc(F)cc3)no2)CC1,"inconclusive: 12.6 µM [inhibitor, partial curve, poor fit]"
6,Cc1noc(C)c1CC(=O)N1CCN(C(=O)N(C)C)[C@@H]2CS(=O)(=O)C[C@@H]21,"inconclusive: 10 µM [inhibitor, partial curve, poor fit]"
7,O=C(O)C1(Oc2ccc3ncccc3c2)CCN(c2cnccn2)CC1,inactive
8,COc1cccc(-c2noc(CCCc3nc(-c4cccnn4)no3)n2)c1,inactive
9,COc1ccc2nc3n(c2c1)[C@@H](CNCc1ccc(C(F)(F)F)cc1)COC3,inactive
10,COc1ccc(-c2nc(C)nc3c2CN([S+](=O)([O-])c2ccc(C)cc2)CC3)cc1,"inconclusive: 11.2 µM [inhibitor, partial curve, poor fit]"
11,COc1ccc(OC)c(NC(=O)Cn2cc(C(=O)c3cccs3)c3ccccc32)c1,"inconclusive: 39.8 µM [inhibitor, single point]"
12,O=C(NCCn1ccn2nc(-c3ccc(F)cc3)cc2c1=O)c1cccc(Cl)c1,inactive
13,COc1ccc(/C=C/C(=O)Nc2ccc(Cl)c(Cl)c2)cc1OC,"inconclusive: 3.55 µM [inhibitor, single point]"
14,O=C(Cn1nc(C(F)(F)F)c2c1CCCC2)Nc1ccc(F)c(Cl)c1,"inconclusive: 31.6 µM [inhibitor, single point]"
15,Cc1ccc(CC(=O)N2CCCN(c3cc(-c4ccccc4)[nH]n3)CC2)cc1,"inconclusive: 2.82 µM [inhibitor, full curve, poor fit]"
16,O=C(O)c1ccc(CN2CC(CNC(=O)c3ccccc3)C3(C2)CN(c2ccccc2)C3)cc1 (stereo not given),inactive
17,C#CCNC(=O)C1CN(c2ccc(F)cc2)C(=O)N1 (stereo not given),inactive
18,CCOc1ccccc1CNC(=O)c1cc2n(n1)CC(c1ccc3c(c1)OCO3)OC2 (stereo not given),"inconclusive: 3.55 µM [inhibitor, full curve, poor fit]"
19,O=C1NC(=NC2CCCCC2)C2(CCN(Cc3ccccc3)C2)N1c1cccnc1 (stereo not given),"inconclusive: 10 µM [inhibitor, partial curve, poor fit]"
20,CC1(C)[C@H](Cc2cc(CC3CCCCC3)on2)C[C@@H]1NC(=O)C1CCCC1,"inconclusive: 2.51 µM [inhibitor, partial curve, poor fit]"

row,Compound,Potency
1,Cc1ccc(C2c3[nH]c4ccccc4c3CCN2C(=O)c2ccc(N(C)C)cc2)cc1 (stereo not given),"inconclusive: 39.8 µM [inhibitor, single point]"
2,CCOC(=O)c1cc(-c2ccccc2)nn1Cc1ccccc1,inactive
3,Cc1ccc(C)c(N2CCN(C(=O)C3CCN(Cc4nc(-c5cccc(Cl)c5)oc4C)CC3)CC2)c1,"inconclusive: 3.16 µM [inhibitor, single point]"
4,CN(C)c1nc2c(c(=O)[nH]1)CCN(C(=O)c1sccc1Cl)C2,"inconclusive: 39.8 µM [inhibitor, single point]"
5,Cc1ccccc1C(=O)N1CCN(c2cc(-c3ccc(Cl)cc3)[nH]n2)CC1,"inconclusive: 31.6 µM [inhibitor, partial curve, poor fit]"
6,CN(C)CCNC(=O)c1nc(-c2ccc(N3CCN(C)CC3)cc2)cc2c1ccn2C,"inconclusive: 31.6 µM [inhibitor, partial curve, poor fit]"
7,O=C(Cn1c(=O)n(-c2ccccc2)c(=O)c2ccc(C(=O)NCc3ccc4c(c3)OCO4)cc21)Nc1ccc(Br)cc1F,"inconclusive: 7.94 µM [inhibitor, single point]"
8,CO[C@H]1C(=O)N(C(C)C)[C@H]1C1CCN(C(=O)Cc2cccc(F)c2)CC1,inactive
9,O=C(c1cnc2n[nH]c(-c3ccccc3)c2n1)N1CCOCC1,"inconclusive: 20 µM [inhibitor, partial curve, poor fit]"
10,CC(C)C[C@@H]1N[C@H](C(=O)NCc2ccccc2)Cc2cn(Cc3cccnc3)c3cccc1c23,"inconclusive: 3.16 µM [inhibitor, full curve, poor fit]"
11,Cc1cccc(-n2nc(COc3ccccc3)nc2CN2CCOC2=O)n1,inactive
12,CN1c2cc(C(=O)Nc3cccc(OC(F)(F)F)c3)ccc2C(=O)N2CCCCCC21 (stereo not given),"inconclusive: 39.8 µM [inhibitor, single point]"
13,CCn1ccc(C(=O)N2CCC3(CC2)CC(N(C(=O)c2ccccc2)C2CC2)CCO3)n1 (stereo not given),"inconclusive: 39.8 µM [inhibitor, single point]"
14,CCOC(=O)c1c(C)[nH]c(C)c1S(=O)(=O)N(C)CC(=O)Nc1cc(Cl)ccc1OC,inactive
15,COc1ccc(NC(=O)Cn2c(=O)n(-c3ccccc3)c(=O)c3ccc(C(=O)NCc4ccc5c(c4)OCO5)cc32)cc1,"inconclusive: 1.41 µM [inhibitor, full curve]"
16,Cc1cccc(NC(=O)c2ccc(F)c(S(=O)(=O)N(C)C3CCCCC3)c2)c1,"inconclusive: 3.98 µM [inhibitor, partial curve, poor fit]"
17,O=c1c2c(n(Cc3cccnc3)n1-c1ccccc1)CN(CC1CC1)CC2,"inconclusive: 11.2 µM [inhibitor, single point]"
18,CCOCCCNC(=O)C(c1ccc(Cl)cc1)N(Cc1ccc2c(c1)OCO2)C(=O)c1ccccc1O (stereo not given),"inconclusive: 39.8 µM [inhibitor, single point]"
19,COCC(=O)N1CCN(Cc2ccccc2-c2ccc(C)c(Cl)c2)CC1,inactive
20,CC1CCCCN1C(=O)CSc1nc2ccccc2nc1Cc1ccc(Cl)cc1 (stereo not given),"inconclusive: 39.8 µM [inhibitor, single point]"
